{"sequences": {"note": "Amino acid sequences for entries named in this document (tags omitted). Residues count along the entry.", "UniProt P26660, residues 814-1030": "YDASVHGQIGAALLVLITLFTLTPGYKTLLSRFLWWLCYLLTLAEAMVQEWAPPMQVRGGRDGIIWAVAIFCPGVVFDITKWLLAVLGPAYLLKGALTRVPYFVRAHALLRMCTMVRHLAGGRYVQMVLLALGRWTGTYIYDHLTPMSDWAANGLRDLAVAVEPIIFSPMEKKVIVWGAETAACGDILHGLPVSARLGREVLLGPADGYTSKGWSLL", "UniProt O14964": "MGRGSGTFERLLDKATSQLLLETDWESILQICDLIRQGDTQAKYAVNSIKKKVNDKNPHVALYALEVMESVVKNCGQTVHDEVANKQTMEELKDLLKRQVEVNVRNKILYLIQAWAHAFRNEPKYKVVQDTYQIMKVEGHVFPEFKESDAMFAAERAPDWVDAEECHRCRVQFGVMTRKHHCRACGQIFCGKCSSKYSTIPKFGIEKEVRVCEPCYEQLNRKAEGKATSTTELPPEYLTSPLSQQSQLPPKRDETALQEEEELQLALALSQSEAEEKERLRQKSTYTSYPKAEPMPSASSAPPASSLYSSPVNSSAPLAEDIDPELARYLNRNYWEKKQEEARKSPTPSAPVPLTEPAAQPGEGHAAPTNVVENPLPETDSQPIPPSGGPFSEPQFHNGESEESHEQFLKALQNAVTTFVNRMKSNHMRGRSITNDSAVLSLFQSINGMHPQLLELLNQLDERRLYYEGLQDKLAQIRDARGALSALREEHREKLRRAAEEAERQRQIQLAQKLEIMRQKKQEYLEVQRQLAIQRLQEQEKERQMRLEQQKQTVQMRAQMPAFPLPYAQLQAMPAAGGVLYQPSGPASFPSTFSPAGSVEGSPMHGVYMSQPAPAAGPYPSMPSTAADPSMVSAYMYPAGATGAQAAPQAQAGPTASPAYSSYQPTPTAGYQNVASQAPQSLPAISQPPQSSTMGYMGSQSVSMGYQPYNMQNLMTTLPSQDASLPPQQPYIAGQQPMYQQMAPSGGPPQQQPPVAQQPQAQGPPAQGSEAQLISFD"}, "source": "paper PMC7053169", "molecules": {"B1": {"name": "MARCH10 (endogenous) (enzyme, UniProt Q8NA82 1-808)", "chain": "MLHDARDRQKFFSDVQYLRDMQHKVDSEYQACLRRQEYRRDPNEKKRDQFWGQETSFERSRFSSRSSSKQSSSEEDALTEPRSSIKISAFKCDSKLPAIDQTSVKQKHKSTMTVRKAEKVDPSEPSPADQAPMVLLRKRKPNLRRFTVSPESHSPRASGDRSRQKQQWPAKVPVPRGADQVVQQEGLMCNTKLKRPNQERRNLVPSSQPMTENAPDRAKKGDPSAPSQSELHPALSQAFQGKNSPQVLSEFSGPPLTPTTVGGPRKASFRFRDEDFYSILSLNSRRESDDTEEETQSEECLWVGVRSPCSPSHHKRSRFGGTSTPQAKNKNFEENAENCRGHSSRRSEPSHGSLRISNAMEPATERPSAGQRLSQDPGLPDRESATEKDRGGSENAKKSPLSWDTKSEPRQEVGVNAENVWSDCISVEHRPGTHDSEGYWKDYLNSSQNSLDYFISGRPISPRSSVNSSYNPPASFMHSALRDDIPVDLSMSSTSVHSSDSEGNSGFHVCQPLSPIRNRTPFASAENHNYFPVNSAHEFAVREAEDTTLTSQPQGAPLYTDLLLNPQGNLSLVDSSSSSPSRMNSEGHLHVSGSLQENTPFTFFAVSHFPNQNDNGSRMAASGFTDEKETSKIKADPEKLKKLQESLLEEDSEEEGDLCRICQIAGGSPSNPLLEPCGCVGSLQFVHQECLKKWLKVKITSGADLGAVKTCEMCKQGLLVDLGDFNMIEFYQKHQQSQAQNELMNSGLYLVLLLHLYEQRFAELMRLNHNQVERERLSRNYPQPRTEENENSELGDGNEGSISQSQVV"}}, "key": {"FLAG-MARCH8 (human)": {"target": "T1, FLAG-MARCH8 (human) (UniProt Q5T0T0)", "T1 sequence": "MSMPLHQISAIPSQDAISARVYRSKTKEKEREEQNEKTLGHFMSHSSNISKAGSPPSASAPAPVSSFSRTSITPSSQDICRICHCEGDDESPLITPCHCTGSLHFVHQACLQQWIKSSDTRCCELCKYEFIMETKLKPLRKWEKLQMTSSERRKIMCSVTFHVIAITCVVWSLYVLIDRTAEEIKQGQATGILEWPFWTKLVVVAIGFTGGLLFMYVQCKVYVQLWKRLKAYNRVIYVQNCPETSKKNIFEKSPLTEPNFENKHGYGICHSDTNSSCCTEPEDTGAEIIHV", "experiment": "co-IP; IP with anti-FLAG antibody or IgG control from membrane fractions of 293T cells ectopically expressing FLAG-MARCH8 and/or GLuc-NS2; blots for GLuc and FLAG"}, "[1]": {"target": "GLuc2-NS2 (HCV NS2 protein derived from the J6/JFH genome, fused to a Gaussia luciferase fragment) (hepatitis C virus (J6/JFH)) (UniProt P26660)", "experiment": "split reporter; PCA of NS2 with HRS in MARCH8KO and WT cells, pooled from two experiments"}, "[2]": {"target": "HCV NS2 (native, from J6/JFH HCV RNA) (hepatitis C virus (J6/JFH)) (UniProt P26660)", "experiment": "co-IP; IP with anti-NS2 antibody or IgG control from membrane fractions of Huh7.5.1 cells 72 hr after transfection with HCV RNA; cells treated with 1 mM DSP crosslinker before lysis; blots for MARCH8, MARCH10, NS2"}}, "note": "These are yes or no findings as the source states them, for the method shown. Binding seen in cells or lysates may run through a third protein. Some entries that bind do so weakly or less than the wild type. For part of these data: Tags and fused reporters may be left off the sequences shown."}
{"molecule": "GLuc2-NS2 (HCV NS2 protein derived from the J6/JFH genome, fused to a Gaussia luciferase fragment) (from UniProt P26660 814-1030)", "values": [{"measurement": "binding", "setting": "FLAG-MARCH8 (human)", "value": "binds"}]}
{"molecule": "HRS (hepatocyte growth factor-regulated tyrosine kinase substrate) (from UniProt O14964 1-777)", "values": [{"measurement": "binding", "setting": "[1]", "value": "binds"}]}
{"molecule": "B1", "values": [{"measurement": "binding", "setting": "[2]", "value": "no binding"}]}
